Laboratory results published in paper PMC4336329 (PLoS ONE, 2015).
About 14,000 (4.5%) of roughly 310,000 compounds showed an effect of 50% or more. Effects have a minus sign here. This is one part of the list.

What follows are molecules tested against human ether-à-go-go-related gene (hERG) potassium channel (human, UniProt Q12809) (assay: primary screen, population patch clamp on CHO cells stably expressing hERG).
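Also: peak tail current of the secondary pulse compared with the same well before compound.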

human ether-à-go-go-related gene (hERG) potassium channel, sequence (Q12809 whole entry, looked up): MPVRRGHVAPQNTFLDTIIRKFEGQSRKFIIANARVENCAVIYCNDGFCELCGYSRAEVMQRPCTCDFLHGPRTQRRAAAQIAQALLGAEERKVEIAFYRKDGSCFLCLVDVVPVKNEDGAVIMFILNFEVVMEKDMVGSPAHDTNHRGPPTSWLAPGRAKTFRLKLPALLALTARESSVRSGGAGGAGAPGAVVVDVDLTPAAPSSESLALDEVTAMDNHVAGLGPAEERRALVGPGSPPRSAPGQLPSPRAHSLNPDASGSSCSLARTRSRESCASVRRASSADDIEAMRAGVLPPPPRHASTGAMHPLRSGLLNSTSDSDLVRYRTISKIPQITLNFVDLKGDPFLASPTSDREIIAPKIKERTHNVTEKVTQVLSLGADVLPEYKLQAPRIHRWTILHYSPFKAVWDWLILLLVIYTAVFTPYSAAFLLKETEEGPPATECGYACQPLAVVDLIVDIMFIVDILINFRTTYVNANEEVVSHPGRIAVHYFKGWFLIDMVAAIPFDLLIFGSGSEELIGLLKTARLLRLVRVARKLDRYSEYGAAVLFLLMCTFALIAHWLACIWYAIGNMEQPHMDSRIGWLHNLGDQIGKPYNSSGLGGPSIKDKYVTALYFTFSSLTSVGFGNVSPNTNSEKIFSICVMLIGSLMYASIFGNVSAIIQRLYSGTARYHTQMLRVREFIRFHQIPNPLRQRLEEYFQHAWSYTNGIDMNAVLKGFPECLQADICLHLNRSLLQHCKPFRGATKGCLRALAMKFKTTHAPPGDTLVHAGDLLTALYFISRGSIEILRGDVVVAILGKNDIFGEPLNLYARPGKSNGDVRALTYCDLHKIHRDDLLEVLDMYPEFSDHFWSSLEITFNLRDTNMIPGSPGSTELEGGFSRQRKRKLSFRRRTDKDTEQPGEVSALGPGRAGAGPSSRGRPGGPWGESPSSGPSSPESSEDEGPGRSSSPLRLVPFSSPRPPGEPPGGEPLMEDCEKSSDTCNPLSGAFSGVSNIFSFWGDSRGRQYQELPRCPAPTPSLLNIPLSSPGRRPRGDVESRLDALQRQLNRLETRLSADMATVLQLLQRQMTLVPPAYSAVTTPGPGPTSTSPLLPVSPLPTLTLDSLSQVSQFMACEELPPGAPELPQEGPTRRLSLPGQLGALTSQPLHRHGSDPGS

Structure (SMILES) | hERG current change (%, negative = inhibition) at 10uM [%]
Cc1nnnn1/C(=C\c1ccccc1)C(=O)OCC(=O)NC(C)(C)C | -2.84
COc1ccc(CCCC(=O)N/N=C/c2cccc(OC)c2O)cc1C | -4.91
COc1ccc(CCNC(=O)CSc2nnc(Cn3c(=O)sc4ccccc43)n2C)cc1OC | -11.1
COc1ccc2nc3oc(C(=O)NCCCOC(C)C)cc3cc2c1 | -0.766
Oc1ccc(Br)cc1-c1cc(-c2ccco2)[nH]n1 | 11.9
CCOc1ccc2nc(SCC(=O)NCc3ccc(OC)cc3)[nH]c2c1 | -17.8
CC1(C)Cc2c(cnn2-c2ccccc2)C(NC(=O)CCCN2CCCC2=O)C1 (centres unmarked) | 3.86
Cn1nccc1NC(=O)Nc1cccc(Cl)c1Cl | 16.5
CCOC(=O)CSc1ncnc2c1c(-c1ccccc1)cn2-c1ccc(OC)cc1 | 6.55
CC(=O)CSc1nnc(NC(=O)CCc2ccccc2)s1 | 7.09
CCn1c(Sc2nc(C)nc3scc(-c4cccs4)c23)n[nH]c1=O | -9.39
COc1ccc2cc(C(=O)NCCO)sc(=O)c2c1OC | -3.69
COc1ccc(OC)c(C(=O)NC(CC(N)=O)c2ccc(NCCN3CCOCC3)c([N+](=O)[O-])c2)c1 (centres unmarked) | 6.63
COc1cc(/C=C2\SC(=S)N(NC(=O)c3ccc(O)cc3)C2=O)ccc1O | 10.8
CCn1ccc(C(=O)Nc2ccsc2C(=O)OC)n1 | -10.8
Cc1ccc(-c2cc(C(=O)NCC3CCCO3)no2)cc1 (centres unmarked) | -0.728
CCOC(=O)c1cnc2ccc(OC)cc2c1NCCc1ccc(OC)c(OC)c1 | -76.6
CC1(NC(=O)c2cc(Cl)nc3ccccc23)CCS(=O)(=O)C1 (centres unmarked) | 7.55
Cn1c(SCC(=O)N2c3ccccc3Sc3ccccc32)nnc1-c1ccco1 | -28.1
O=C(CCCn1c(=O)c2sccc2n(CC(=O)NCC2CCCO2)c1=O)NCc1ccco1 (centres unmarked) | 6.73
COc1ccc2cc3cc(C(=O)NCc4ccco4)oc3nc2c1 | -9.75
O=C(C1CC(=O)N(c2ccc(F)cc2)C1)N1CCCCC1 (centres unmarked) | -0.378

Structure (SMILES) | hERG current change (%, negative = inhibition) at 10uM [%]
O=C(c1cc([N+](=O)[O-])ccc1Cl)N1CCc2ccccc21 | -19.9
CC1(C)Cc2c(sc3c2c(N)nc(=S)n3Cc2ccc(Br)cc2)CO1 | -27.2
CSc1nc2ccc(NS(=O)(=O)c3ccccc3F)cc2s1 | 1.47
Cc1ccc(N(Cc2ccccc2)C(=O)c2ccc(S(=O)(=O)N3CCOCC3)cc2)cc1 | -28.5
CCOC(=O)c1nnsc1-c1ccc(-c2snnc2C(=O)OCC)cc1 | -6.1
O=C(NCN1CCN(c2ccccc2)CC1)c1cnccn1 | 19.4
CCCN(Cc1ccco1)S(=O)(=O)c1ccc(OC)c(OC)c1 | 0.00658
COCCN1CN=C(Nc2nc3ccccc3s2)NC1 | -8.77
COc1ccc(NC(=O)COC(=O)Cn2nnc3ccccc32)cc1 | 8.35
CCNCc1cc(Br)c(OCC(=O)Nc2ccccc2)c(OC)c1.Cl | -19.8
CCOC(=O)Cc1cc(=O)[nH]c(/N=C(\N)Nc2ccc(C)cc2C)n1 | 7.25
Cc1ccc(NC(=O)Cc2csc(-c3ccccc3)n2)cc1F | 0.0343
Cc1nc(N)sc1C(=O)N/N=C/c1c[nH]c2ccccc12 | -1.81
CCC1=C(OC(=O)N(CC)CC)N2C(=O)OC(=NCC3CC3)[C@]2(Cc2ccccc2)[C@H]2C1=CC[C@H]1C(=O)N(C)C(=O)[C@H]12 | -17.7
COc1ccc(N2CCN(C(=O)CCCCCn3c(=S)[nH]c4cc5c(cc4c3=O)OCO5)CC2)cc1 | 19.3
COc1ccc(-n2nnnc2SCC#CCO)cc1 | -17.2
CCCCN(C(=O)c1nn(C)c(=O)c2ccccc12)c1c(N)n(CCC)c(=O)[nH]c1=O | -1.19
COc1ccc(N(CC(=O)NCc2ccc3c(c2)OCO3)S(=O)(=O)c2ccccc2[N+](=O)[O-])c(OC)c1 | -29.1
O=C(c1ccncc1)N1CCc2ccccc2C1 | -1.35
CC(C)C(NC(=O)c1ccc(F)cc1)C(=O)Nc1cccnc1 (centres unmarked) | 0.585
O=C(CCn1c(=O)sc2ccccc21)NCCN1CCOCC1 | -4.66
CC(C)c1nc(SCC(=O)NC2CCCCC2)c2ccccc2n1 | 14.6
